ChEMBL document CHEMBL5303300, “EUbOPEN Chemogenomics Library - Multiplex” (2023)
Some entries of the source have several records that differ or are many. This is not the full list of results. The source may hold further records. Values that stand side by side are repeated measurements across runs, samples, wells, individuals or studies.

Experiments:
U2OS = test: Multiplex assay against U2OS; assay type: toxicity, cell-based; details: human, number of replicates 2
Summary of the method: (§1)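 Live cells were stained at seeding with Hoechst33342, BioTracker Green Microtubule Cytoskeleton Dye, MitoTracker Red and Annexin V Alexa Fluor 680. Following compound addition, they were imaged on a CQ1 microscope at 37°C and 5% CO2 and gated by CellPathfinder machine learning into Hoechst high-intensity objects or normal cells, with normal cells split into healthy, pyknosed or fragmented nuclei and pyknosed cells into mitotic or apoptotic. Tubulin, mitochondrial-mass and membrane-permeability phenotypes are per cents of healthy-nucleus cells.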

Fibroblast = test: Multiplex assay against human fibroblast; assay type: toxicity, cell-based; details: number of replicates 2; summary of the method: as §1
[1] = 12 h, 1 µM, compound concentration 1 uM
[2] = 12 h, 10 µM, compound concentration 10 uM
[3] = 24 h, 1 µM, compound concentration 1 uM
[4] = 24 h, 10 µM, compound concentration 10 uM
[5] = 48 h, 1 µM, compound concentration 1 uM
[6] = 48 h, 10 µM, compound concentration 10 uM

| SMILES | Population Fragmented Nuclei (%) (U2OS; [1]) | Total Cell Count (U2OS; [1]) | Total Cell Count (U2OS; [2]) | Total Cell Count (U2OS; [3]) | Total Cell Count (U2OS; [4]) | Total Cell Count (U2OS; [5]) | Total Cell Count (U2OS; [6]) | Population Fragmented Nuclei (%) (U2OS; [2]) | Population Mitotic Cells (%) (U2OS; [3]) | Population Healthy Nuclei (%) (U2OS; [4]) | other results |
| --- | --- | --- | --- | --- | --- | --- | --- | --- | --- | --- | --- |
| CN1CCc2cc(Cl)c(O)cc2[C@@H](c2ccccc2)C1.Cl | 29% and 6% | 24 and 249 | 57 and 282 | 44 and 333 | 80 and 372 | 62 and 675 | 125 and 761 |  |  |  | Population Mitotic Cells (%) (U2OS; [1]): 0% and 63%; Population Fragmented Nuclei (%) (U2OS; [3]): 27% and 5%; Population Pyknosed Nuclei (%) (U2OS; [5]): 18% and 4%; Population Pyknosed Nuclei (%) (Fibroblast; [2]): 16% and 4% |
| CN1CCCN(C(=O)c2cccc(-c3ccc(/C=C4/C(=O)Nc5ccc(Cl)cc54)o3)c2)CC1 |  | 130 and 37 |  | 41 and 133 |  |  |  | 12% and 42% | 37% and 12% | 4% and 21% | Population Membrane Permeable-Phenotype (%) (U2OS; [2]): 53% and 6%; Population Mitochondria Different-Phenotype (%) (U2OS; [2]): 69% and 12%; Population Mitotic Cells (%) (U2OS; [2]): 8% and 35%; Population Fragmented Nuclei (%) (U2OS; [4]): 5% and 37%; Population Membrane Permeable-Phenotype (%) (U2OS; [4]): 83% and 0%; Population Mitochondria Different-Phenotype (%) (U2OS; [4]): 66% and 9%; Population Mitotic Cells (%) (U2OS; [4]): 4% and 42%; Population Fragmented Nuclei (%) (U2OS; [6]): 4% and 43%; Population Membrane Permeable-Phenotype (%) (U2OS; [6]): 96% and 26%; Population Mitochondria Different-Phenotype (%) (U2OS; [6]): 89% and 26%; Population Mitotic Cells (%) (U2OS; [6]): 3% and 37%; Population Membrane Permeable-Phenotype (%) (Fibroblast; [2]): 61% and 0% |
| C[C@H](N)Cn1ccc2cc(F)c(Cl)cc21.O=C(O)/C=C/C(=O)O |  | 262 and 45 | 311 and 32 | 48 and 355 | 409 and 41 | 99 and 813 | 74 and 718 |  | 0% and 37% |  | Population Fragmented Nuclei (%) (Fibroblast; [3]): 51% and 16%; Population Membrane Permeable-Phenotype (%) (Fibroblast; [3]): 48% and 3%; Population Tubulin-Different-Phenotype (%) (Fibroblast; [3]): 54% and 13% |
| CN(C)C/C=C/C(=O)Nc1ccc(C(=O)Nc2cccc(Nc3ncc(Cl)c(-c4c[nH]c5ccccc45)n3)c2)cc1 |  | 32 and 140 | 62 and 239 | 35 and 144 | 69 and 229 | 28 and 135 | 216 and 57 |  | 16% and 5% |  | Population Membrane Permeable-Phenotype (%) (U2OS; [3]): 36% and 8%; Population Mitotic Cells (%) (U2OS; [5]): 15% and 3%; Population Healthy Nuclei (%) (U2OS; [6]): 13% and 1%; Population Membrane Permeable-Phenotype (%) (U2OS; [6]): 71% and 0%; Population Mitochondria Different-Phenotype (%) (Fibroblast; [4]): 3% and 14% |
| COc1cc(OC)cc(C(=O)NNC(=O)Nc2cccc3ccccc23)c1 | 20% and 2% | 20 and 238 | 186 and 56 | 317 and 24 | 247 and 63 | 608 and 49 | 91 and 485 | 4% and 16% | 48% and 0% |  | Population Apoptotic (%) (U2OS; [2]): 42% and 9%; Population Pyknosed Nuclei (%) (U2OS; [6]): 25% and 6%; Population Fragmented Nuclei (%) (Fibroblast; [3]): 4% and 16%; Population Tubulin-Different-Phenotype (%) (Fibroblast; [4]): 15% and 3% |
| Cn1ncc(NC(=O)c2nc(-c3c(F)cccc3F)sc2N)c1N1CC[C@@H](N)[C@H](F)CC1 |  | 47 and 177 | 60 and 210 | 50 and 266 |  | 476 and 78 | 56 and 200 |  |  | 14% and 45% | Population Tubulin-Different-Phenotype (%) (Fibroblast; [5]): 19% and 6% |
| Cn1cc(-n2cnc3c(NCc4nc5cc(Cl)c(Cl)cc5[nH]4)nc(N4CCOCC4)nc32)cn1 | 27% and 4% | 47 and 174 | 41 and 129 | 199 and 41 | 150 and 39 | 186 and 39 | 38 and 142 | 46% and 3% | 3% and 20% | 26% and 7% | Population Mitotic Cells (%) (U2OS; [1]): 58% and 11%; Population Healthy Nuclei (%) (U2OS; [2]): 14% and 68%; Population Mitochondria Different-Phenotype (%) (U2OS; [3]): 31% and 0%; Population Fragmented Nuclei (%) (U2OS; [4]): 8% and 30%; Population Membrane Permeable-Phenotype (%) (U2OS; [4]): 53% and 0%; Population Mitochondria Different-Phenotype (%) (U2OS; [4]): 61% and 0%; Population Membrane Permeable-Phenotype (%) (U2OS; [5]): 87% and 0%; Population Mitochondria Different-Phenotype (%) (U2OS; [5]): 87% and 0%; Population Tubulin-Different-Phenotype (%) (U2OS; [5]): 100% and 0%; Population Fragmented Nuclei (%) (U2OS; [6]): 44% and 10%; Population Fragmented Nuclei (%) (Fibroblast; [1]): 4% and 22% |
